Experimental data from patent publication US20180092975A1 (CELGENE, published 2018).

How the values were obtained:
[1] = molecular target: T1, human PD-1 expressed on cells (human, UniProt Q15116 partial chain); experiment: cell-based or functional assay
[2] = molecular target: T1, human PD-1 expressed on cells; experiment: flow cytometry on CHO cells expressing human PD-1, detection with anti-human IgG Fc, PE GeoMFI
[3] = molecular target: T2, cyno PD-1 expressed on cells (cynomolgus monkey, UniProt B0LAJ3 25-288); experiment: flow cytometry on CHO cells expressing cyno PD-1, detection with anti-human IgG Fc, PE GeoMFI
T2 construct: also called Cyno PD-1 expressed on CHO cells; PD-1 on cynomolgus T cells
T2 sequence (B0LAJ3 entry or part of it limits assumed): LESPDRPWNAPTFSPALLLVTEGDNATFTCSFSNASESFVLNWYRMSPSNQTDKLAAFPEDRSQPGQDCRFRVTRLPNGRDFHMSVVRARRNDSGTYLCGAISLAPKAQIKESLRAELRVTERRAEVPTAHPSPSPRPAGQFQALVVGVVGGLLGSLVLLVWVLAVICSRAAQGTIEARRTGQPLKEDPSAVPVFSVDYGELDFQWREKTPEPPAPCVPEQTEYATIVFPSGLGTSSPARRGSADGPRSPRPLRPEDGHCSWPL

T1 sequence (Q15116 25-198 limits assumed): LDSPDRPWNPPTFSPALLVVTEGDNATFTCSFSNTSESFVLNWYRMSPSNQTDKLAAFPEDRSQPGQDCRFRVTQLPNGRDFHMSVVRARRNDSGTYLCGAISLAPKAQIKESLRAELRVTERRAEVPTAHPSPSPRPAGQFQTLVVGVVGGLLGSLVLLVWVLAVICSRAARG

| average EC50 for IFN-γ inhibition, normal donor whole blood (n=4) [1] | LogEC50 [2] | LogEC50 [3] | Binder |
| --- | --- | --- | --- |
| 6.18 nM |  |  | PD1AB-6-K3 (antibody, human IgG1, kappa) heavy: EVQLVQSGAEVKKPGATVKISCKASGFNIKDTYMHWVQQAPGKGLEWMGRIDPANGDRKYDPKFQGRVTITADTSTDTAYMELSSLRSEDTAVYYCARSGPVYYYGSSYVMDYWGQGTTVTVSS[gap - human IgG1 constant region with changes] light: DIVMTQSPDSLAVSLGERATINCKSGQSVLYSSNQKNFLAWYQQKPGQPPKLLIYWASTRESGVPDRFSGSGSGTDFTLTISSLQAEDVAVYYCHQYLYSWTFGQGTKLEIKRTVAAPSVFIFPPSDEQLKSGTASVVCLLNNFYPREAKVQWKVDNALQSGNSQESVTEQDSKDSTYSLSSTLTLSKADYEKHKVYACEVTHQGLSSPVTKSFNRGEC |
|  | 0.431 log10 of nM (axis: Primary Ab conc (nM), log scale) | 0.806 log10 of nM (axis: Primary Ab conc (nM), log scale) | PD1AB-6-IgG1 (antibody, Full IgG1 kappa antibody; also called IgG1_PD1AB-6; IgG1-PD1AB-6) heavy: EVQLVQSGAEVKKPGATVKISCKASGFNIKDTYMHWVQQAPGKGLEWMGRIDPANGDRKYDPKFQGRVTITADTSTDTAYMELSSLRSEDTAVYYCARSGPVYYYGSSYVMDYWGQGTTVTVSS[gap - human IgG1 constant region] light: DIVMTQSPDSLAVSLGERATINCKSGQSVLYSSNQKNFLAWYQQKPGQPPKLLIYWASTRESGVPDRFSGSGSGTDFTLTISSLQAEDVAVYYCHQYLYSWTFGQGTKLEIKRTVAAPSVFIFPPSDEQLKSGTASVVCLLNNFYPREAKVQWKVDNALQSGNSQESVTEQDSKDSTYSLSSTLTLSKADYEKHKVYACEVTHQGLSSPVTKSFNRGEC |
